# Source: paper PMC4336329 (PLoS ONE, 2015)
# The campaign covered roughly 310,000 compounds. About 14,000 (4.5%) showed an effect of 50% or more. Effects have a minus sign here. This is one part of the list. Where a SMILES comes first, the peptide text is derived from it. The star is where a group is joined. Boc = CC(C)(C)OC(=O)*
# Target: human ether-à-go-go-related gene (hERG) potassium channel (human, UniProt Q12809)
# Experiment: primary screen, population patch clamp on CHO cells stably expressing hERG
# 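Also: peak tail current of the secondary pulse compared with the same well before compound.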
# Sequence of human ether-à-go-go-related gene (hERG) potassium channel (Q12809 whole entry, looked up): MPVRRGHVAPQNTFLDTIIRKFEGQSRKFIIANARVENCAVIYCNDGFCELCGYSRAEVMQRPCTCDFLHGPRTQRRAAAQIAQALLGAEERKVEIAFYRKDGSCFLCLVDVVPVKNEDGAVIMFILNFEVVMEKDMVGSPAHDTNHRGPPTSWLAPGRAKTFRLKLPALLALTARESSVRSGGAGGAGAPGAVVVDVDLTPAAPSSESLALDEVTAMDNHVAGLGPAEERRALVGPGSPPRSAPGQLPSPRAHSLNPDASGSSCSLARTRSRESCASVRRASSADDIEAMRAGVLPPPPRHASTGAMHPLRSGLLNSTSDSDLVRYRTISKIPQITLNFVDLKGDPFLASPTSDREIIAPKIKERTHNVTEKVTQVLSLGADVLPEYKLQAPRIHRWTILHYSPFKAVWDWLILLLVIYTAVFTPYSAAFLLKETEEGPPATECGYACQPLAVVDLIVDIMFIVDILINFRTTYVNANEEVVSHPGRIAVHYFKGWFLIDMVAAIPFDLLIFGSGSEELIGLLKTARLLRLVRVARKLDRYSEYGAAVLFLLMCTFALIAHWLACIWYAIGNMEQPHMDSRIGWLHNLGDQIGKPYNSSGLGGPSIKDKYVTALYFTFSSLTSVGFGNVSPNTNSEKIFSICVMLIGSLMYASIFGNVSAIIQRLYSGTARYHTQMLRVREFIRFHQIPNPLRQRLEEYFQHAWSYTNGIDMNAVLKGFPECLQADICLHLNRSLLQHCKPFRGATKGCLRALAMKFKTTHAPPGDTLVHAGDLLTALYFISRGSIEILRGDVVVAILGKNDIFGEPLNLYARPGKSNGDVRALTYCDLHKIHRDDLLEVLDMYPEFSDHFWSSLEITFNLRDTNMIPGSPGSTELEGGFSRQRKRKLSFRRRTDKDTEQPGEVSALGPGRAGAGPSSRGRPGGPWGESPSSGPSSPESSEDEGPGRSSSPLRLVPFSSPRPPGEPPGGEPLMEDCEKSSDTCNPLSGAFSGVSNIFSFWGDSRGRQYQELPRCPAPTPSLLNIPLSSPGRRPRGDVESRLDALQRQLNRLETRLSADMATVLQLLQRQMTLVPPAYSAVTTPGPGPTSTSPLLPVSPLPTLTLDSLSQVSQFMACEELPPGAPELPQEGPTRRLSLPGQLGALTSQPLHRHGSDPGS
row,SMILES,"hERG current change (%, negative = inhibition) at 10uM [%]"
1,Cc1ccc(C2CC(c3ccco3)=NN2S(C)(=O)=O)cc1 (stereo not shown),-2.3
2,O=C(COC(=O)Cc1ccsc1)Nc1ccccc1,5
3,CCOc1ncccc1C(=O)Nc1cc(S(=O)(=O)N2CCCCC2)ccc1Cl,20.5
4,O=C(NCc1ccc2c(c1)OCO2)c1n[nH]c(=O)c2ccccc12,20.6
5,COc1ccc(-c2noc(=O)n2Cc2cc(C)ccc2C)cc1,-3.12
6,CN(CC(=O)NC1CCN(Cc2ccccc2)CC1)S(=O)(=O)c1ccc(Cl)s1,-67.9
7,COC(=O)c1cccc(CN2C(=O)SC(Nc3ccc(C)cc3)C2=O)c1 (stereo not shown),8.07
8,Cc1ccc(S(=O)(=O)N2CC(O)CC2C(=O)OCc2nc3sc(C)c(C)c3c(=O)[nH]2)cc1 (stereo not shown),-9.59
9,O=[N+]([O-])c1ccccc1S(=O)(=O)Nc1ccc(-c2ccc3nncn3n2)cc1,-22
10,COc1ccc(C)cc1Nc1nc(-c2c[nH]c3ccccc23)cs1,4.34
11,COc1ccc(-n2nc3c(c2NC(=O)CCCCl)CSC3)cc1,-1.78
12,Cc1cc(/C=N/NC(=O)c2c(Br)cnn2C)c(C)n1-c1cccc(Br)c1,10.4
13,c1ccc2nc3c(nc2c1)c1ccccc1n3CCN1CCOCC1,-48.5
14,CCN1CCN(c2ccc(S(=O)(=O)N3CCCCC3)cc2NC(=O)/C=C/c2cc(OC)ccc2OC)CC1,-52.7
15,COc1cccc(NC(=S)NCc2ccccn2)c1,12.5
16,S=C(NCCC1=CCCCC1)Nc1ccccc1,11.1
17,Cc1cc(NC(=O)CSc2nnc(C(C)N(C)C)n2Cc2ccccc2)no1 (stereo not shown),10.8
18,Cc1ccc(OCC(O)CN2CCN(Cc3ccc4c(c3)OCO4)CC2)c(C)c1.Cl (stereo not shown),-57.1
19,COCCn1c(SCC(=O)NCc2ccc3c(c2)OCO3)nc2ccccc2c1=O,-42.4
20,CCN(CC)CCN(C(=O)c1ccc([N+](=O)[O-])cc1)c1nc2ccc(OC)cc2s1.Cl,-49.7
21,Cc1ccc(C(=O)O)cc1-c1ccc(/C=C2\SC(=O)N(CC(=O)Nc3ccccc3)C2=O)o1,3.74
22,COCCCNc1nc2nonc2nc1N1CCN2CCCC2C1 (stereo not shown),22.6

row,SMILES,"hERG current change (%, negative = inhibition) at 10uM [%]"
1,CCOCCn1c(N2CCN(c3ccccc3)CC2)nc2c1c(=O)n(C)c(=O)n2C,-24.5
2,CN(C)S(=O)(=O)c1cccc(NC(=O)CNC2CCCCC2)c1.O=C(O)C(=O)O,5.24
3,CN(CC(=O)Nc1ccc(Cl)c(C(F)(F)F)c1)C(=O)CCCc1nc2ccccc2c(=O)[nH]1,12.1
4,Cc1ccc2c(c1)N(CCC(=O)NC1CC1)C(=O)C(C)O2 (stereo not shown),1.3
5,Cc1ccc(NC(=O)CSc2nnc(N)s2)cc1S(=O)(=O)N1CCCCC1,-4.28
6,Cc1ccc(C(=O)NNC(=O)C2CCN(Cc3ccccc3)CC2)cc1,-5.71
7,NC(=S)Nc1cccc2[nH]ccc12,7.89
8,COc1ccc(/C=N/Nc2nc(C)nc(N)n2)cc1,-25.6
9,Cc1cccc(OCc2nnc(SCc3cc(=O)[nH]c4ccccc34)n2-c2ccccc2)c1,-21.1
10,CCC(CC)c1nnc(NC(=O)C2CC(=O)N(c3ccc4c(c3)OCCO4)C2)s1 (stereo not shown),-20.9
11,O=C(O)C1=C[C@H](C2CC2)C[C@H](OCCCCO)O1,2.71
12,COC(=O)/C(=C(/F)Sc1cc(C)c(O)c(C)c1)C(F)(F)F,0.738
13,C=C(C)COc1ccc(-c2n[nH]c(C)c2-c2ccc(OC)cc2)c(O)c1,4.85
14,CCOC(=O)CN1Cc2cccc(C(=O)O)c2C1=O,6.31
15,CCCCCCCCNC(=O)/C(C#N)=C/c1ccc2c(c1)OCCO2,15.2
16,CCOc1c(OC)cccc1C1CC(=O)Nc2cc(OC)c(OC)cc21 (stereo not shown),1.37
17,NC(=O)C1CCCN(C(=O)Nc2cccc3ccccc23)C1 (stereo not shown),1.8
18,CC1=NN(Cc2ccccc2)C(=O)C1C(c1ccncc1)C(C#N)C#N (stereo not shown),-3.95
19,Cc1csc(Sc2ccc(C(=O)OCC(=O)Nc3ccc(OC(F)(F)F)cc3)cc2[N+](=O)[O-])n1,3.83
20,CCC(NC(=O)CCCc1ccccc1)c1ccccc1 (stereo not shown),-7.93
21,Cc1ccc(C2=NNC(C(O)C(O)C(O)C(C)O)S2)cc1 (stereo not shown),1.91
22,O=C(CCC(=O)c1ccccc1)Nc1cccnc1,-1.8

row,SMILES,"hERG current change (%, negative = inhibition) at 10uM [%]"
1,CCOc1ccc(S(=O)(=O)Nc2cc(Cl)ccc2O)cc1,3.04
2,CCOC(=O)C1(Cc2ccc(OC)cc2)CCN(C(=O)[C@@H]2CCCN2C(C)=O)CC1,7.14
3,Cl.Clc1ccc(-c2ccc(CNCc3ccccn3)o2)cc1,-52.4
4,O=C(NC(=S)Nc1cccc(NC(=O)c2ccccc2)c1)c1cccc([N+](=O)[O-])c1,12.3
5,CC(=O)c1cn(CCOc2cc(C)ccc2C)c2ccccc12,22.9
6,COc1ccc(C2OC(=O)CC2C(=O)NC2CCCC(C)C2C)cc1OC (stereo not shown),17.4
7,Cc1cc(C)c(NC(=O)CSc2nc3ncc(Cl)cc3[nH]2)c(C)c1,16.3
8,Cc1ccnc(NS(=O)(=O)Cc2ccccc2)c1,8.01
9,O=C(NC(=O)c1ccccc1)NC(=O)c1ccccc1,9.76
10,CCN1CCN(CCCNC(=O)C2CCN(c3nnc(-n4c(C)ccc4C)s3)CC2)CC1,1.05
11,Cc1sc(N/N=C/c2ccco2)nc1-c1ccccc1,-4.11
12,O=C(NCC1CCCO1)C(c1cccnc1)N(C(=O)Cc1cccs1)c1cccnc1 (stereo not shown),-8.38
13,CCOc1ccc(C(C)NC(=O)CN2C(=O)NC3(CCCCC3)C2=O)cc1OCC (stereo not shown),21.3
14,Cc1occc1C(=O)NNC1=CC(=O)CC(C)(C)C1,13.3
15,CC(=O)N1c2ccccc2Nc2ccccc21,9.66
16,CCCc1cc(=O)[nH]c(SCC(=O)N2N=C(c3ccc(Cl)cc3)CC2c2ccco2)n1 (stereo not shown),11.2
17,COc1cc(NC(=O)c2cc(OC)c(OC)c(OC)c2)c(OC)cc1NC(=O)CN1CCCCC1,0.976
18,CCOC(=O)N1CCN(C(=O)/C(=C/c2cccc3ccccc23)NC(=O)c2ccc(OC)cc2)CC1,-50.9
19,O=C(c1ccco1)N1CCN(C(=S)Nc2ccccc2Cl)CC1,1.03
20,O=C1C2CSCN2C(=O)CN1CCCN1CCN(C(c2ccccc2)c2ccccc2)CC1 (stereo not shown),-53.6
21,COc1nonc1NC(=O)CSc1nc2ccccc2[nH]1,11.1
22,CC(C)C1NC(=S)N(Cc2ccccc2)C1=O (stereo not shown),5.2

row,SMILES,"hERG current change (%, negative = inhibition) at 10uM [%]"
1,CN(Cc1ccccc1)C(=O)Cc1ccccc1,10.5
2,O=C(Nc1ccc(N2CCCC2)c(Cl)c1)c1ccco1,-23.5
3,CCOC(=O)c1c(-c2ccc(C)cc2)csc1NC(=O)c1cc2ccccc2oc1=O,8.1
4,CC(=O)C1=NN(c2ccccc2)C(c2ccc3c(c2)OCO3)N1c1ccc(N2CCOCC2)cc1.CC(C)O (stereo not shown),13.9
5,COc1ccc(S(=O)(=O)Nc2cccc(-n3cnnn3)c2)cc1OC,13.3
6,O=C1/C(=C\c2ccccn2)SC(=S)N1Nc1ncc(C(F)(F)F)cc1Cl,-1.01
7,COc1ccc2cc(C(c3nnnn3C3CCCC3)N3CCOCC3)c3nnnn3c2c1 (stereo not shown),-51.7
8,CC1(C)C(c2cccs2)=[N+]([O-])C2(CCCCC/C2=N\NC(N)=S)N1O (stereo not shown),5.65
9,CC(=O)NCCC(=O)Nc1cccc(S(=O)(=O)N(C)c2ccccc2)c1,9.95
10,CCSCCOC(=O)C1=C(C)NC(=O)NC1c1cc(OC)ccc1OC (stereo not shown),-0.422
11,CC(C)(C)NC(=O)CSc1nnc(-c2c[nH]c3ccccc23)o1,5.85
12,Cc1sc(NC(=O)CN(Cc2ccc(F)cc2)C(=O)C(C)C)c(C(N)=O)c1C,-6.56
13,CC(=O)C1=C(c2ccccc2)NC(=S)NC1c1cc(Cl)c(OC(C)C)c(Cl)c1 (stereo not shown),-17.7
14,O=C(c1ccccc1)c1nnc(-c2ccccc2F)o1,-32.2
15,O=C(NCCCN1CCN(c2ccccc2F)CC1)C1CCCN(S(=O)(=O)c2cnc[nH]2)C1 (stereo not shown),22.7
16,CCCCCN1C=CC(=C2C(=O)c3ccccc3C2=O)C=C1,-61
17,CC(=O)C1C(=O)C=C(c2cccs2)CC1c1ccccc1 (stereo not shown),0.0854
18,COC1=C(Nc2ccc(OC)cc2)C(=O)c2ccccc2C1=O,-22.6
19,Cc1cc(=O)[nH]c(N2CCN(c3ccc(Cl)cc3)CC2)n1,2.52
20,Cc1cc(C)nc(CCNC(=O)CC2C(=O)NCCN2Cc2ccccc2)n1 (stereo not shown),16.2
21,CCC(=O)Nc1cc(Cl)ccc1N1CCN(C(=O)CC)CC1,-24.9
22,CSCCC(NC(=O)OC(C)(C)C)C(=O)NC(CC(C)C)C(N)=O (stereo not drawn) (Boc-Met-Leu-NH2; configuration not given here),15
